Results as given in PubChem BioAssay AID1479 (National Center for Advancing Translational Sciences (NCATS), 2009).
The campaign covered roughly 280,000 compounds. About 820 (0.29%) were called active. This list was built around the results that the source calls inconclusive (neither active nor inactive); the mix of calls is not that of the screen. The call rests on the fitted dose curve; in most records, active means well fitted curve in either direction with a large enough effect; inconclusive means small, poorly fitted or top-dose-only effect; inactive means flat fitted curve, though single readings scatter. Potencies of inconclusive entries are left out as doubtful fits.

experiment: Total Fluorescence Counterscreen for Inhibitors of the Interaction of Thyroid Hormone Receptor and Steroid Receptor Coregulator 2; conditions: TRb/SRC2 Texas Red total fluorescence interference; series mostly up to 106 µM
Summary of the method: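 Human TRβ ligand-binding domain (0.6 uM) and Texas Red SRC2 peptide (20 nM) in Tris buffer with 1 uM T3 and 5% DMSO were incubated with pinned compound for 5 hr at ambient temperature. Total fluorescence was computed as S + 2P (555/632 nm).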
On the % scale 0 is the no-effect control and ±100 the full control effect; potency means the concentration at half of the fitted maximal effect; tags describe the fitted curve by direction and shape or compound fluorescence and quenching.

| SMILES | Potency | fluorescence change, negative = quenching |
| --- | --- | --- |
| CCOC(=O)c1[nH]c(C)c(C(=O)NCc2ccc(Cl)cc2)c1C | inactive | – |
| CC(C)(C)c1ccc(C(=O)NCC(c2ccc(Cl)cc2)N2CCOCC2)cc1 (stereo not drawn) | active: 10 µM [quencher] | – |
| Cc1cccc2cccnc12 | inactive | – |
| O=C1C[C@@H](O)[C@@H](O)[C@H]2[C@@H]3C(=O)N(c4cccc(Oc5ccccc5)c4)C(=O)[C@@H]3CC[C@H]12 | inconclusive [falling, full curve, poor fit] | – |
| CN1\C(=C/C=C/C=C/C=[N+](C)C)C(C)(C)c2ccccc21 | active: 50.1 µM [fluorescent] | – |
| CCN(CC)c1ccc(/C=C/C(=O)C2C(=O)C=C(C)OC2=O)cc1 (stereo not drawn) | active: 31.6 µM [fluorescent] | – |
| Cc1ccc(CCNC(=O)c2c(C)oc3ncn(CC(C)C)c(=O)c23)cc1 | inconclusive [falling, full curve, poor fit] | – |
| O=[N+]([O-])c1ccc(-c2csc(Nc3ccccc3)[n+]2Cc2ccccc2)cc1 | inconclusive [falling, partial curve, poor fit] | – |
| COc1cc(/C=N/NC(=S)Nc2cccc(C(=O)O)c2)ccc1O | inconclusive [falling, full curve, poor fit] | – |
| COc1ccc(F)cc1S(=O)(=O)Nc1cccc(-c2ccc(N3CCC(C)CC3)nn2)c1 | active: 6.31 µM [quencher] | – |
| O=C(COC(=O)c1cn(-c2ccccc2)nc1-c1ccc(F)cc1)Nc1ncc(Cl)cc1Cl | inactive | – |
| COC(=O)c1c(-n2c(C)cc(C=O)c2C)sc2c1CCCC2 | inactive | – |
| Nc1nc(SCc2ccc([N+](=O)[O-])cc2)c2ncn([C@@H]3O[C@H](CO)[C@H](O)[C@H]3O)c2n1 | inactive | – |
| CN(C)c1ccc(CNc2ccc3c(c2)ncn3C)cc1 | inactive | – |
| COc1ccc(-c2cn3cccnc3n2)cc1NC(=O)Nc1ccc(Cl)cc1 | inactive | – |
| Cc1ccc(S(=O)(=O)N2CCCc3cc(NS(=O)(=O)c4cc(C)ccc4C)ccc32)cc1 | inactive | – |
| COc1ccc(-c2cc(-c3ccccc3)nc3c2COc2ccc(F)cc2-3)cc1 | inconclusive [falling, full curve, poor fit] | – |
| OC[C@H]1NC[C@@H](O)[C@@H](O)[C@@H]1O | inconclusive [falling, full curve, poor fit] | – |
| Cc1c(S(=O)(=O)c2ccccn2)c(N)n(Cc2ccccc2Cl)c1C | inconclusive [fluorescent, partial curve] | – |
| Cc1ccc(C)c(S(=O)(=O)c2nnn3c2nc(NC2CCCCC2)c2sccc23)c1 | inactive | – |
| COc1cccc(Cn2c(CNC(=O)c3cc([N+](=O)[O-])ccc3Cl)nc3cccnc32)c1 | inconclusive [falling, full curve, poor fit] | – |
| CCNC(=O)C(Cc1ccccc1)NC(=O)OCc1ccccc1 (stereo not drawn) | inactive | – |

| SMILES | Potency | fluorescence change, negative = quenching |
| --- | --- | --- |
| Cc1ccc(Cl)cc1N1CCN(S(=O)(=O)c2ccc3c(c2)CC(C)N3C(=O)C2CCC2)CC1 (stereo not drawn) | active: 15.8 µM [quencher] | – |
| COc1ccc(CNc2ncnc3onc(-c4ccc(F)cc4)c23)cc1 | inactive | – |
| Cc1ccc(S(=O)(=O)NCc2nc(-c3cccc(C)c3)no2)cc1 | inconclusive [falling, partial curve, poor fit] | – |
| CCC[C@H]1C[C@H](C(=O)NC(C(C)Cl)C2O[C@@H](SC)C(OP(=O)(O)O)[C@@H](O)[C@@H]2O)N(C)C1 (stereo partly drawn) | inconclusive [quencher, partial curve] | – |
| Cc1c(C(=O)N2CCN(c3ccccc3)CC2)sc2nc3n(c(=O)c12)CCC3 | inconclusive [quencher, full curve] | – |
| CCOC(=O)C1=C(C)NC(=O)NC1c1cccc(OC)c1OCc1ccccc1Cl (stereo not drawn) | inactive | – |
| COc1cc(OC)c(NS(=O)(=O)c2ccc3c(c2)CCCN3C(C)=O)cc1Cl | inconclusive | – |
| Cc1ccc(NC(=O)c2ccc(-n3c(C)nnc3C)cc2)cc1F | inconclusive | – |
| Cc1cc(O)c(C=O)c2c1C(=O)Oc1c(COC(=O)/C=C/C(=O)O)c(O)c(C(=O)O)c(C)c1O2 | active: 7.08 µM [quencher] | – |
| C#Cc1ccc([C@H]2C=C(C(=O)OCC=C)O[C@@H](OCC)[C@@H]2CCCO)cc1 | inactive | – |
| CCCn1c2ccccc2c2cnn(CC(=O)N(CCCOC)Cc3ccco3)c(=O)c21 | inconclusive [quencher, full curve] | – |
| O=C(NC1CCCC1)c1ccc(CSc2nc3cccnc3n2Cc2ccc(F)cc2)cc1 | inconclusive [quencher, full curve] | – |
| CCOc1ccc(CN2CCN(Cc3ccc4c(c3)c3ccccc3n4CC)CC2)cc1 | inconclusive [quencher, full curve] | – |
| c1ccc2c(c1)CCCc1cc(NCCN3CCOCC3)nnc1-2 | inconclusive [falling, partial curve, poor fit] | – |
| Cc1cc(C)cc(N2C(=O)N(Cc3cc(=O)n4ccccc4n3)c3ccccc3S2(=O)=O)c1 | inconclusive [falling, partial curve, poor fit] | – |
| O=C1[C@H]2[C@H]3[C@H](O)[C@H](O)C/C(=N/OC[C@@H](O)COCc4ccco4)[C@@H]3CC[C@@H]2C(=O)N1Cc1ccccc1 | – | inactive: -2.32% [at 11.2 µM] |
| CCCCCCn1cnc2c(oc3nc4c(cc32)CCCC4)c1=O | inconclusive [quencher, full curve] | – |
| O=C(Nc1cccc([N+](=O)[O-])c1)c1cc2ccccc2cc1O | inconclusive [quencher, partial curve] | – |
| CCN1CCN(Cc2c(O)ccc3oc(C)c(C(=O)Nc4cccc(Cl)c4C)c23)CC1 | inconclusive [falling, partial curve, poor fit] | – |
| CCCn1c2ccccc2c2cnn(CC(=O)NCCCN3CCCCC3CC)c(=O)c21 (stereo not drawn) | inconclusive [quencher, full curve] | – |
| CCCN(C(=O)c1cc(S(=O)(=O)N2CCc3ccccc32)cn1C)c1ccc(OCC)cc1 | inconclusive [falling, full curve, poor fit] | – |
